{"source": "paper PMC4336329", "about": "(PLoS ONE, 2015)", "note": "About 14,000 (4.5%) of roughly 310,000 compounds showed an effect of 50% or more. Effects have a minus sign here. Some of the results follow.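 Note: peak tail current of the secondary pulse compared with the same well before compound.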", "data": [{"biological_target": "human ether-à-go-go-related gene (hERG) potassium channel (human, UniProt Q12809)", "sequence (Q12809 whole entry, looked up)": "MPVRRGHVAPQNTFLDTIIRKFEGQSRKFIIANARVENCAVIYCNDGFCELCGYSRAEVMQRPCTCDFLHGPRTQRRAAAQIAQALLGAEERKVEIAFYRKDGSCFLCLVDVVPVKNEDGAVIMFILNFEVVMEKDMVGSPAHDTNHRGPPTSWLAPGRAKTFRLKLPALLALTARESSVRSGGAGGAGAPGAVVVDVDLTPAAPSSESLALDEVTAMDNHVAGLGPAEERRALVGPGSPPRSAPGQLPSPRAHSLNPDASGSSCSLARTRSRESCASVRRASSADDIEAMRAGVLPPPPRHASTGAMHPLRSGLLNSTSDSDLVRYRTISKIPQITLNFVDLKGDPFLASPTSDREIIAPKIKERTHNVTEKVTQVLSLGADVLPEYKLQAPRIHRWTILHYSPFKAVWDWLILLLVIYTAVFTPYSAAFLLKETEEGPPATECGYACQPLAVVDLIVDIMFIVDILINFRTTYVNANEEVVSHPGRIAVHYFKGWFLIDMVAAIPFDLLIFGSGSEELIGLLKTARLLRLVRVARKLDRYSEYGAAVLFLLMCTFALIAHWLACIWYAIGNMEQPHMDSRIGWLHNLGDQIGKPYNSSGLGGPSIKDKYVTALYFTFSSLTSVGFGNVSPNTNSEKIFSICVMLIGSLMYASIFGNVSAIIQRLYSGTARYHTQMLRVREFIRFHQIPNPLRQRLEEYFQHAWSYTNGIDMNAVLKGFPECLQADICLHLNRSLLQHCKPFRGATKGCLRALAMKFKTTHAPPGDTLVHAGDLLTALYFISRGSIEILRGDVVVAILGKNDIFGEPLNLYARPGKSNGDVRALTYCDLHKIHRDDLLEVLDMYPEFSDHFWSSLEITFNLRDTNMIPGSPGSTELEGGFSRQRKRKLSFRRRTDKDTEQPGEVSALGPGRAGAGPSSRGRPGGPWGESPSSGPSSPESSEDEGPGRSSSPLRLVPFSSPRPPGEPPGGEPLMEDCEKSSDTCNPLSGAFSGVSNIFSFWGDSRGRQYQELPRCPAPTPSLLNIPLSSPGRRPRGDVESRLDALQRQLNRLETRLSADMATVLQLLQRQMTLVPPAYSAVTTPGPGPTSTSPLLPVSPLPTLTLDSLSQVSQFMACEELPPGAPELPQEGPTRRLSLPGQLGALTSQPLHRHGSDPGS", "experiment": "primary screen, population patch clamp on CHO cells stably expressing hERG", "units": {"hERG current change (%, negative = inhibition) at 10uM": "%"}, "values": [{"smiles": "CC(=O)c1c(C)c2c(n1CCN(C)C)CCCC2.Cl", "hERG current change (%, negative = inhibition) at 10uM": -4.72}, {"smiles": "CC(Sc1nnc(-c2ccco2)n1C)C(=O)Nc1nccs1", "note": "(stereo not drawn)", "hERG current change (%, negative = inhibition) at 10uM": -21.1}, {"smiles": "COc1ccc(-c2nc(SCc3ccccc3)n(C(=O)c3ccco3)n2)cc1", "hERG current change (%, negative = inhibition) at 10uM": 26.6}, {"smiles": "O=C1Nc2ccccc2C1(c1ccccc1)c1ccccc1", "hERG current change (%, negative = inhibition) at 10uM": -5.95}, {"smiles": "O=c1ccc2ccc(O[C@@H]3O[C@H](CO)[C@@H](O)[C@H](O)[C@H]3O)c(O)c2o1", "hERG current change (%, negative = inhibition) at 10uM": 23.8}, {"smiles": "CCOc1ccc(CNC(=O)CCCC(=O)n2ncc3cc(C)ccc32)cc1", "hERG current change (%, negative = inhibition) at 10uM": 8.34}, {"smiles": "CC(=O)c1cc2c(cc1NC(=O)c1cnc(C)cn1)OCO2", "hERG current change (%, negative = inhibition) at 10uM": 4.22}, {"smiles": "CCC(c1nnnn1C(C)(C)C)N1CCN(C(=O)c2ccco2)CC1", "note": "(stereo not drawn)", "hERG current change (%, negative = inhibition) at 10uM": -9.54}, {"smiles": "Cc1ccc(CCNC(=O)C23CN(Cc4ccccc4)CC2C(c2cccc([N+](=O)[O-])c2)=NO3)cc1", "note": "(stereo not drawn)", "hERG current change (%, negative = inhibition) at 10uM": -14.8}, {"smiles": "Cc1coc2c(C)c3oc(=O)c(CCC(=O)NCCCN4CCCC4=O)c(C)c3cc12", "hERG current change (%, negative = inhibition) at 10uM": -12.8}, {"smiles": "C=CCCC(=O)N(C)CCO", "hERG current change (%, negative = inhibition) at 10uM": 20.4}, {"smiles": "CC(=O)N1c2ccc(Cl)cc2C2OCCC2C1c1ccco1", "note": "(stereo not drawn)", "hERG current change (%, negative = inhibition) at 10uM": 9.11}, {"smiles": "O=C(Cc1ccc(Cl)cc1)Nc1ccccc1CO", "hERG current change (%, negative = inhibition) at 10uM": -6.75}, {"smiles": "Cc1cc(C(=O)Nc2nc(-c3ccccn3)cs2)ccc1[N+](=O)[O-]", "hERG current change (%, negative = inhibition) at 10uM": -4.11}, {"smiles": "OCC[C@H]1C[C@@H](O)[C@H](O)[C@@]2(Cc3ccccc3O2)O1", "hERG current change (%, negative = inhibition) at 10uM": 26.8}, {"smiles": "N=C1C(c2nc3ccccc3s2)=C(O)CN1NC(=O)c1c[nH]c2ccccc12", "hERG current change (%, negative = inhibition) at 10uM": 16.8}, {"smiles": "CCCN(CC(=O)Nc1cccc(Br)c1)CC(=O)Nc1ccc(F)c(F)c1F", "hERG current change (%, negative = inhibition) at 10uM": -10.1}, {"smiles": "CSCC[C@H](NC(=O)C1CCCC1)c1nc2ccccc2[nH]1", "hERG current change (%, negative = inhibition) at 10uM": 9.91}, {"smiles": "COc1cccc(CNC(=O)C(=O)NCCC2CCCCN2S(=O)(=O)c2ccccc2)c1", "note": "(stereo not drawn)", "hERG current change (%, negative = inhibition) at 10uM": -34.6}, {"smiles": "COC(=O)c1cc2c(ccn2-c2ccc(F)cc2)n1Cc1ccc(OC)cc1", "hERG current change (%, negative = inhibition) at 10uM": -0.0838}, {"smiles": "CC(O)(CS(=O)(=O)Cc1ccc(Cl)cc1)C(=O)Nc1cccc(C(F)(F)F)c1", "note": "(stereo not drawn)", "hERG current change (%, negative = inhibition) at 10uM": -3.03}, {"smiles": "COC(=O)C1(C)NC(c2ccccc2OC)C2C(=O)N(c3ccccc3)C(=O)C21", "note": "(stereo not drawn)", "hERG current change (%, negative = inhibition) at 10uM": 3.97}, {"smiles": "CN1C(=O)C2(c3ccccc31)c1c(oc3ccccc3c1=O)C(=O)N2CCCO", "note": "(stereo not drawn)", "hERG current change (%, negative = inhibition) at 10uM": 16.3}, {"smiles": "CC1CCC2C(=O)N(c3ccc(NC4CCCCC4)c([N+](=O)[O-])c3)C(=O)C2C1", "note": "(stereo not drawn)", "hERG current change (%, negative = inhibition) at 10uM": 1.71}]}]}
